# Results reported in the supplement of paper PMC3334620.
# Over roughly 33,000 sequences, “E-score (-0.5 to 0.5)” has its median near -0.041; the highest 2% begin near 0.37. The list shows a part of the results.
# Target: T1, Ecm22 (UniProt Q05958)
# T1 sequence: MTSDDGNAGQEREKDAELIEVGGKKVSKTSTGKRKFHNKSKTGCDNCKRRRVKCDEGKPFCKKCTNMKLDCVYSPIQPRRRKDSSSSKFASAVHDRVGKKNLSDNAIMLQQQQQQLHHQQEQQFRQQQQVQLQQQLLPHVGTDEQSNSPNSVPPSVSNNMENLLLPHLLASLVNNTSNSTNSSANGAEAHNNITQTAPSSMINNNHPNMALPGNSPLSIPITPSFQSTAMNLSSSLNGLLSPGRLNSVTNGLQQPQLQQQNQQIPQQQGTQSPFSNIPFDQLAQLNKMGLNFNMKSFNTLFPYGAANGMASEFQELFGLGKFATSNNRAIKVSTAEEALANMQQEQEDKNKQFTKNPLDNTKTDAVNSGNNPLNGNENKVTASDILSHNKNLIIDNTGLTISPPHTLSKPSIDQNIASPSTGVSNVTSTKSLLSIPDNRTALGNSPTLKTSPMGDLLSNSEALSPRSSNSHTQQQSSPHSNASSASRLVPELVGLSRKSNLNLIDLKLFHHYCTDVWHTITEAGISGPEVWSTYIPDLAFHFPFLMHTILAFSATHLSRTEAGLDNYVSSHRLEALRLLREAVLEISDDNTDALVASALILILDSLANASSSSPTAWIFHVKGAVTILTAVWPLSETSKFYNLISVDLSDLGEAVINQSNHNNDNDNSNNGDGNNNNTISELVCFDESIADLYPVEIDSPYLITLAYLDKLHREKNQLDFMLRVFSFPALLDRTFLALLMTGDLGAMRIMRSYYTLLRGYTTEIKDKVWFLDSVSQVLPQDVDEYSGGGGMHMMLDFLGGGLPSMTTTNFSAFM
# Test: PBM E-score (8-mer binding enrichment) (E-score (-0.5 to 0.5)); higher = stronger / more preferred TF binding; most listed sequences are background and not binding sites
# Details: protein concentration: 200 nM; construct: GST-full length
# Outline: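 Universal all-10-mer Agilent arrays, double-stranded by primer extension on fresh or once-stripped slides, were probed with about 100-200 nM GST-tagged yeast transcription factors made by PURExpress. Fluorescent anti-GST detected bound protein, and masliner normalised the scans. E-scores from the Universal PBM Analysis Suite were given to each ungapped eight-base word pooled with its reverse complement.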
row,Sequence,PBM E-score
1,CCAACTAA,-0.0761
2,CCAGAATA,0.0266
3,AAAAACTC,-0.0804
4,AACATCTA,-0.163
5,CCACTTCA,-0.179
6,CACGGTCC,-0.135
7,CGGAAGAC,-0.0175
8,CTTTAGCA,-0.272
9,GCCTTAAA,0.018
10,AAGTTGGA,-0.144
11,ACATGTGG,-0.117
12,CGGTTTAA,0.217
13,CGTTAGGA,0.0298
14,ACGCCCAT,0.0165
15,CATCAGAC,-0.11
16,CACTATTA,0.105
17,CGATATTA,0.214
18,ACCCATGG,-0.231
19,GCAGAAAA,0.129
20,CCATGAGG,-0.13
21,CTTTCATC,-0.209
22,TCATACGA,0.463
23,CGCGGCCC,0.0405
24,GAGCTGAC,-0.0324
25,GACGGAAC,0.0799

row,Sequence,PBM E-score
1,TTATCCAA,-0.0862
2,AGGTCTGA,-0.113
3,AGCAGTGG,-0.127
4,CTGCGACC,-0.169
5,AACGCCGA,0.149
6,ATAGCGGA,-0.0269
7,GGACAATA,-0.188
8,CTAGCTTA,-0.244
9,AGCGGAAC,0.234
10,CCTTGCCG,-0.0884
11,ACTCGAGG,-0.0795
12,AGAAAAAT,0.00769
13,GACAGCGC,0.0726
14,AGAACAAG,0.0882
15,AATGATCC,0.00369
16,AAGAGGCA,0.0751
17,GTTGTATA,0.0728
18,AAGTAGCT,-0.0254
19,AGTTAGAG,-0.143
20,CTGTTTCC,-0.139
21,CACGTGCC,-0.181
22,CCAAGCAA,-0.172
23,AGAATTGA,0.0376
24,GTTAGTGA,-0.0322
25,AAAGTCGG,0.0415

row,Sequence,PBM E-score
1,ACGTGTGC,-0.0736
2,CCTGTAAC,-0.0164
3,GCCATAGC,-0.226
4,AAATCATC,-0.0425
5,AGACTCTG,-0.142
6,AAAAATGT,0.0606
7,CCCAACAC,-0.161
8,ACTATAAT,0.00733
9,CACTATGA,-0.211
10,AGGAAATC,0.152
11,ACGTTGCG,0.167
12,CCACAAAA,-0.0154
13,CTATCTTA,-0.197
14,GCTAAATA,-0.102
15,CCGGGTGC,-0.232
16,CAAATGTA,0.0682
17,CTCAACAG,-0.193
18,AGGTTACT,-0.192
19,CAGCGGAA,-0.123
20,CAATATCA,-0.028
21,GTCAGAAC,-0.0461
22,CCGACCCG,0.185
23,GACGATTA,0.0551
24,GGAGTTAC,0.00868
25,AATCACAC,0.00776

row,Sequence,PBM E-score
1,GAAGACGC,-0.0486
2,CACCCCGG,-0.236
3,TAGGCGCA,-0.123
4,CCATGGCA,-0.0795
5,ACCCGGGA,0.044
6,GCGGAGTA,-0.0238
7,CACAATCG,0.104
8,CCGCTAAC,-0.00124
9,GAAACAGC,-0.106
10,AATGGGCC,-0.116
11,ATCACAGC,-0.06
12,CCCTGATC,0.102
13,CCCATCAC,-0.261
14,CGAGAAGC,0.198
15,ACCGGTCG,0.216
16,CTGTCATA,-0.0845
17,CCTGCTAC,-0.099
18,ACAGAACA,0.0426
19,ACTCCGCA,-0.126
20,TCTGGACA,-0.0105
21,ACTGTCTC,0.0547
22,ACTTAAGT,-0.16
23,ATTGTGCG,0.113
24,ACAGAGCG,0.00751
25,AGCTTCGA,-0.115

row,Sequence,PBM E-score
1,AGGATTCG,0.0336
2,CATGAGTA,0.0502
3,CCCGTCTA,-0.106
4,GAGGGGAC,-0.121
5,CATTACCG,-0.025
6,CGATTAAC,0.217
7,ACACATCA,-0.0417
8,ACAGACCG,0.0348
9,AATCATGT,0.0212
10,GGTCCTCA,-0.088
11,AATGGCAG,-0.174
12,ACATAACA,-0.0522
13,AGGTGACA,-0.0992
14,ATATTTGA,0.0827
15,ATGCCTTA,-0.104
16,AGTCACCA,-0.189
17,GAGTTTGC,-0.0545
18,CACTTAAG,-0.0616
19,CTAAGCTC,-0.2
20,ATGGTGCG,0.12
21,ACGGCCCT,0.107
22,GCCCATGA,-0.0452
23,GCACGCCC,-0.0551
24,GCCCCGAA,-0.0866
25,CTATGATA,0.163

row,Sequence,PBM E-score
1,CAGCTCTA,-0.19
2,AAAAATCG,0.0349
3,AAGCTCCT,-0.294
4,AAACGGGA,0.332
5,AAGTTCCG,0.0506
6,GTGCAGGA,-0.214
7,TACTGAGA,-0.229
8,ACTTCTTA,-0.112
9,CAGCGCGA,-0.0491
10,AGCGATCA,0.0802
11,GGAGTAAC,-0.0734
12,GGTCTCTA,-0.153
13,AGCATAGC,-0.245
14,CGCTACCG,0.147
15,AAAGCAGG,-0.203
16,GGTTGGTA,0.163
17,GCATCCCA,-0.233
18,CATGGGGG,-0.375
19,TGCCGGCA,-0.275
20,CGCTTATC,0.127
21,ACAACCTC,-0.00434
22,ACCCGTAG,-0.142
23,CAGGGGCG,-0.185
24,ATCGCAAG,-0.113
25,CATTGCGG,-0.0533

row,Sequence,PBM E-score
1,CTGTGTGA,-0.0561
2,AACGACCT,0.385
3,TTCATGAA,-0.134
4,GCGTGTGA,-0.0669
5,ATTGCCGA,0.117
6,CTATATAG,0.0949
7,AGCCTGCA,-0.174
8,CCAATTTA,0.155
9,AGAATGGA,0.0528
10,CTTCCCCA,-0.271
11,CTAAAGTA,-0.0757
12,GGTGTACA,-0.0578
13,CCAGTAAC,-0.154
14,AACGCCTC,-0.198
15,TAAGCGTA,0.104
16,CGCGGTTC,0.306
17,AGGAGGCG,-0.229
18,GAGGCACA,-0.16
19,CCTCTTCC,-0.161
20,ACTTGTAC,0.183
21,GACGAACC,0.0132
22,ATGGTAGC,0.0235
23,AGGGGCTC,-0.156
24,GCCCAGTA,-0.284
25,TACCCTCA,-0.164

row,Sequence,PBM E-score
1,GTTACAAA,0.0318
2,AAGGTACC,-0.0364
3,CCAGCGCA,-0.234
4,AAAATCTT,-0.151
5,AGAGGGAG,-0.0784
6,ACAGTGAG,-0.197
7,ACCGGCAC,0.00786
8,CTTAGACC,-0.191
9,GCTCACTA,-0.166
10,CCTTCCAC,-0.152
11,AATTACCT,0.105
12,CTTAGCTC,-0.0151
13,GGGCATTA,-0.134
14,GTCGTTTA,0.491
15,CAGGAAGG,-0.357
16,CTTCCATA,-0.201
17,CAGGTAGA,-0.0317
18,ACCCCAGT,-0.0793
19,AGATGATG,-0.0193
20,GGCCGTTA,0.0322
21,GGGGGGCA,-0.219
22,TGACCCCA,-0.206
23,AGTTAACG,0.261
24,ACGGGCTG,0.061
25,GGCTAGCC,-0.146

row,Sequence,PBM E-score
1,TCGGTAGA,0.0315
2,CAGTCTAA,0.0425
3,ATTATTGC,0.109
4,CCGCCCGC,0.096
5,CCTTGTAA,0.0622
6,AAGCCTCG,0.139
7,GATCAGAC,-0.185
8,TAGATTAA,0.177
9,ACACTAAT,0.0687
10,CGGCTGTC,0.0324
11,CCCCTGTA,-0.133
12,AACAATCC,-0.0494
13,CAATCAAA,-0.0176
14,AGACTCTA,-0.00932
15,CCTTCGAA,-0.2
16,CGAGCGTC,0.196
17,CCCGGCTC,-0.118
18,ACGAATAC,0.26
19,AGTTGTGA,-0.0643
